Results taken from paper PMC5892938.
This is one part of the list. At the low end of the ranking, values are background and their order means little.

biological target: GST-SBP-SLBP (stem-loop binding protein) (UniProt Q14493); experiment: targeted RNA Bind-n-Seq; conditions: RBNS binding buffer: 25 mM Tris pH 7.5, 150 mM KCl, 3 mM MgCl2, 0.1% Tween, 0.5 mg/mL BSA, 1 mM DTT; 27 nM protein, 750 pM RNA pool; temperature not stated; high values mean tight binding;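 further: DESeq read counts versus GST-SBP nonspecific binding control pulldown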

Sequence	binding signal (log2 fold change)
GGUCACGUCUCAAUCAACUCAAUUCCAGGAGUUUCCUCCUGCAUUCUCAACAGCUCGCAGUCAAG	0.195
GGUCACGUCUCAAUCAACUCAUCCUCCAGGGAAAGCCCUGGCUAUCUCAACAGCUCGCAGUCAAG	0.109
GGUCACGUCUCAAUCAACUCCAAAGAGGGGGGGAAAACCCCUUUGCCCUCCAACUCAACAGCUCGCAGUCAAG	0.0593
GGUCACGUCUCAAUCAACUCUAUUUCCAGGGAAACCCCUGGCGUUUUCAACAGCUCGCAGUCAAG	0.041
GGUCACGUCUCAAUCAACUCUUCCUCCAGGGAAACCCCUGGUUUAUUCAACAGCUCGCAGUCAAG	-0.12
GGUCACGUCUCAAUCAACUCUAUUUCAGGAGUUUACUCCUGCAUUUUCAACAGCUCGCAGUCAAG	0.241
GGUCACGUCUCAAUCAACUCAUGUCCAGGAGUUUACUCCUGCUUUUUCAACAGCUCGCAGUCAAG	0.058
GGUCACGUCUCAAUCAACUCAAUUCCCAGGGAAAUCCCUGGUAUACUCAACAGCUCGCAGUCAAG	0.0394
GGUCACGUCUCAAUCAACUCUUUUCCCAGGGAAACCCCUGGCAUUCUCAACAGCUCGCAGUCAAG	0.144
GGUCACGUCUCAAUCAACUCAUCCGAGGGGGGGAAAACCCCUUUACCCUCAUCAUCAACAGCUCGCAGUCAAG	-0.0838
GGUCACGUCUCAAUCAACUCUAUUUCAGGAGUUUCCUCCUGUUUUGUCAACAGCUCGCAGUCAAG	0.0259
GGUCACGUCUCAAUCAACUCUUAAGAGGGGGGGAAAACCCCUUUGCCCUCAUUUUCAACAGCUCGCAGUCAAG	-0.276
GGUCACGUCUCAAUCAACUCUCAAGAGGGGGGGAAAACCCCUUUACCCUCCAUGUCAACAGCUCGCAGUCAAG	-0.398
GGUCACGUCUCAAUCAACUCUAUUUCCAGGGAAAUCCCUGGCAUUCUCAACAGCUCGCAGUCAAG	-0.0812
GGUCACGUCUCAAUCAACUCAAAAGAGGGGGGGAAAACCCCUUUACCCUCAUCAUCAACAGCUCGCAGUCAAG	0.265
GGUCACGUCUCAAUCAACUCUAGUCCCAGGGAAAGCCCUGGUUAUUUCAACAGCUCGCAGUCAAG	0.076
GGUCACGUCUCAAUCAACUCUACAGAGGGGGGGAAAACCCCUUUGCCCUCCAAAUCAACAGCUCGCAGUCAAG	-0.0841
GGUCACGUCUCAAUCAACUCUUCCUCCAGGGAAAGCCCUGGCAAUUUCAACAGCUCGCAGUCAAG	-0.0758
GGUCACGUCUCAAUCAACUCUCCCGAGGGGGGGAAAACCCCUUUACCCUCCAUUUCAACAGCUCGCAGUCAAG	0.0186
GGUCACGUCUCAAUCAACUCCCUAGAGGGGGGGAAAACCCCUUUACCCUCCGCAUCAACAGCUCGCAGUCAAG	0.0585
GGUCACGUCUCAAUCAACUCAUGUCCCAGGGAAAGCCCUGGUUUUUUCAACAGCUCGCAGUCAAG	-0.172
GGUCACGUCUCAAUCAACUCAAGUCCCAGGGAAAACCCUGGCAAAUUCAACAGCUCGCAGUCAAG	0.104
GGUCACGUCUCAAUCAACUCAUCUUCAGGAGUUUUCUCCUGCGUAUUCAACAGCUCGCAGUCAAG	0.0807
GGUCACGUCUCAAUCAACUCAAUAGAGGGGGGGAAAACCCCUUUACCCUCAUUCUCAACAGCUCGCAGUCAAG	0.183
GGUCACGUCUCAAUCAACUCUUCCUCAGGAGUUUACUCCUGUUUUCUCAACAGCUCGCAGUCAAG	0.076

Sequence	binding signal (log2 fold change)
GGUCACGUCUCAAUCAACUCAAUCUCCAGGGAAAGCCCUGGUAUUUUCAACAGCUCGCAGUCAAG	-0.155
GGUCACGUCUCAAUCAACUCCUAAGAGGGGGGGAAAACCCCUUUGCCCUCGAUAUCAACAGCUCGCAGUCAAG	-0.195
GGUCACGUCUCAAUCAACUCUAUUCCAGGAGUUUCCUCCUGUAUACUCAACAGCUCGCAGUCAAG	-0.00294
GGUCACGUCUCAAUCAACUCAUCCUCAGGAGUUUACUCCUGUAAUUUCAACAGCUCGCAGUCAAG	-0.0536
GGUCACGUCUCAAUCAACUCUAACGAGGGGGGGAAAACCCCUUUACCCUCAAUGUCAACAGCUCGCAGUCAAG	-0.116
GGUCACGUCUCAAUCAACUCUUCCUCCAGGGAAAUCCCUGGCAUUCUCAACAGCUCGCAGUCAAG	0.141
GGUCACGUCUCAAUCAACUCAUCCUCCAGGGAAACCCCUGGUAUACUCAACAGCUCGCAGUCAAG	0.0572
GGUCACGUCUCAAUCAACUCUUUUUCAGGAGUUUACUCCUGUUAAUUCAACAGCUCGCAGUCAAG	-0.0221
GGUCACGUCUCAAUCAACUCAACUCCAGGAGUUUUCUCCUGUAUUCUCAACAGCUCGCAGUCAAG	0.112
GGUCACGUCUCAAUCAACUCAUUUUCCAGGGAAAACCCUGGCUUUCUCAACAGCUCGCAGUCAAG	-0.182
GGUCACGUCUCAAUCAACUCUAUCUCAGGAGUUUUCUCCUGCUUACUCAACAGCUCGCAGUCAAG	0.147
GGUCACGUCUCAAUCAACUCUUCAGAGGGGGGGAAAACCCCUUUACCCUCCUACUCAACAGCUCGCAGUCAAG	0.0529
GGUCACGUCUCAAUCAACUCUAUCUCAGGAGUUUCCUCCUGCUUAUUCAACAGCUCGCAGUCAAG	-0.079
GGUCACGUCUCAAUCAACUCAUCCCCAGGAGUUUCCUCCUGUAUACUCAACAGCUCGCAGUCAAG	-0.000309
GGUCACGUCUCAAUCAACUCAAUCUCAGGAGUUUCCUCCUGCAAUCUCAACAGCUCGCAGUCAAG	0.133
GGUCACGUCUCAAUCAACUCUUUUCCCAGGGAAAACCCUGGCAUUCUCAACAGCUCGCAGUCAAG	0.072
GGUCACGUCUCAAUCAACUCAUUUCCCAGGGAAAGCCCUGGCAUUUUCAACAGCUCGCAGUCAAG	-0.261
GGUCACGUCUCAAUCAACUCAAUUUCCAGGGAAACCCCUGGCGUAUUCAACAGCUCGCAGUCAAG	-0.155
GGUCACGUCUCAAUCAACUCAUUUUCAGGAGUUUUCUCCUGUUUAGUCAACAGCUCGCAGUCAAG	0.111
GGUCACGUCUCAAUCAACUCUCAAGAGGGGGGGAAAACCCCUUUGCCCUCGAAUUCAACAGCUCGCAGUCAAG	-0.262
GGUCACGUCUCAAUCAACUCUACUCCCAGGGAAAGCCCUGGUAAUCUCAACAGCUCGCAGUCAAG	-0.0134
GGUCACGUCUCAAUCAACUCUCCAGAGGGGGGGAAAACCCCUUUACCCUCGUCAUCAACAGCUCGCAGUCAAG	-0.407
GGUCACGUCUCAAUCAACUCAAUAGAGGGGGGGAAAACCCCUUUACCCUCGAAAUCAACAGCUCGCAGUCAAG	0.268
GGUCACGUCUCAAUCAACUCUAUUCCAGGAGUUUGCUCCUGCAUAUUCAACAGCUCGCAGUCAAG	0.0594
GGUCACGUCUCAAUCAACUCAAUCCCCAGGGAAACCCCUGGUAUACUCAACAGCUCGCAGUCAAG	0.0463

Sequence	binding signal (log2 fold change)
GGUCACGUCUCAAUCAACUCAAUUUCAGGAGUUUCCUCCUGUAUUUUCAACAGCUCGCAGUCAAG	0.047
GGUCACGUCUCAAUCAACUCAUUUUCAGGAGUUUACUCCUGUUUAGUCAACAGCUCGCAGUCAAG	-0.00551
GGUCACGUCUCAAUCAACUCUACUUCCAGGGAAAGCCCUGGCAUAUUCAACAGCUCGCAGUCAAG	0.212
GGUCACGUCUCAAUCAACUCUAAAGAGGGGGGGAAAACCCCUUUGCCCUCCAUUUCAACAGCUCGCAGUCAAG	-0.274
GGUCACGUCUCAAUCAACUCUUCCUCCAGGGAAACCCCUGGUAAACUCAACAGCUCGCAGUCAAG	-0.163
GGUCACGUCUCAAUCAACUCAAUCUCAGGAGUUUCCUCCUGCUUAUUCAACAGCUCGCAGUCAAG	-0.0882
GGUCACGUCUCAAUCAACUCAUCAGAGGGGGGGAAAACCCCUUUACCCUCCACUUCAACAGCUCGCAGUCAAG	0.0364
GGUCACGUCUCAAUCAACUCAUAAGAGGGGGGGAAAACCCCUUUACCCUCAUCGUCAACAGCUCGCAGUCAAG	-0.254
GGUCACGUCUCAAUCAACUCCAACGAGGGGGGGAAAACCCCUUUACCCUCAUUCUCAACAGCUCGCAGUCAAG	-0.222
GGUCACGUCUCAAUCAACUCCUUCGAGGGGGGGAAAACCCCUUUACCCUCAUACUCAACAGCUCGCAGUCAAG	0.0404
GGUCACGUCUCAAUCAACUCAUUCUCCAGGGAAAACCCUGGUUUAUUCAACAGCUCGCAGUCAAG	0.134
GGUCACGUCUCAAUCAACUCAACUUCCAGGGAAAACCCUGGCUAAUUCAACAGCUCGCAGUCAAG	-0.0938
GGUCACGUCUCAAUCAACUCUUUCUCAGGAGUUUACUCCUGUAAUUUCAACAGCUCGCAGUCAAG	0.0846
GGUCACGUCUCAAUCAACUCAACUCCCAGGGAAAGCCCUGGUAUUUUCAACAGCUCGCAGUCAAG	-0.146
GGUCACGUCUCAAUCAACUCUAUCCCCAGGGAAAUCCCUGGUUAUCUCAACAGCUCGCAGUCAAG	-0.0336
GGUCACGUCUCAAUCAACUCUAUCUCCAGGGAAAACCCUGGUUAUUUCAACAGCUCGCAGUCAAG	0.11
GGUCACGUCUCAAUCAACUCAGUCUCCAGGGAAAUCCCUGGUUAAUUCAACAGCUCGCAGUCAAG	-0.391
GGUCACGUCUCAAUCAACUCUAUUUCAGGAGUUUACUCCUGUUUUGUCAACAGCUCGCAGUCAAG	0.118
GGUCACGUCUCAAUCAACUCUACGGCAGGAGUUUACUCCUGGAUAUUCAACAGCUCGCAGUCAAG	0.0824
GGUCACGUCUCAAUCAACUCAUUCCCAGGAGUUUUCUCCUGUUUUCUCAACAGCUCGCAGUCAAG	-0.0662
GGUCACGUCUCAAUCAACUCUUCCCCCAGGGAAAGCCCUGGUUUUCUCAACAGCUCGCAGUCAAG	0.0161
GGUCACGUCUCAAUCAACUCUUUCUCCAGGGAAAUCCCUGGCUAUUUCAACAGCUCGCAGUCAAG	-0.0809
GGUCACGUCUCAAUCAACUCAUCUCCCAGGGAAAGCCCUGGUAUUCUCAACAGCUCGCAGUCAAG	0.0751
GGUCACGUCUCAAUCAACUCUACUUCAGGAGUUUUCUCCUGUAUUCUCAACAGCUCGCAGUCAAG	0.0231
